# Test results published in the supplement of paper PMC8728848.
# The other results are listed elsewhere or left out.
# Key:
# Experiment in all cases: glycan array binding signal (z-score within array); higher = stronger binding
# Conditions in all cases: glycan notation: IUPAC condensed, linker removed
# Fuc(a1-2)Gal = molecular target: Fuc(a1-2)Gal
# Procedure, shortened: (§1)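 From the Consortium for Functional Glycomics database, 3228 arrays were curated, keeping only those whose protein sequence was available. Binding is given as a within-array Z-score averaged across arrays sharing a protein sequence and across linkers. Negative Z-scores can be read as non-binding.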
# Fuc(a1-2)Gal(b1-3)GalNAc = molecular target: Fuc(a1-2)Gal(b1-3)GalNAc
# Procedure, shortened: as §1
# [1] = molecular target: Fuc(a1-2)Gal(b1-3)GalNAc(a1-3)[Fuc(a1-2)]Gal(b1-4)Glc
# Procedure, shortened: as §1
# [2] = molecular target: Fuc(a1-2)Gal(b1-3)GalNAc(a1-3)[Fuc(a1-2)]Gal(b1-4)GlcNAc
# Procedure, shortened: as §1
# [3] = molecular target: Fuc(a1-2)Gal(b1-3)GalNAc(b1-3)Gal
# Procedure, shortened: as §1
# [4] = molecular target: Fuc(a1-2)Gal(b1-3)GalNAc(b1-3)Gal(a1-4)Gal(b1-4)Glc
# Procedure, shortened: as §1
# [5] = molecular target: Fuc(a1-2)Gal(b1-3)GalNAc(b1-4)[Neu5Ac(a2-3)]Gal(b1-4)Glc
# Procedure, shortened: as §1
# Fuc(a1-2)Gal(b1-3)GlcNAc = molecular target: Fuc(a1-2)Gal(b1-3)GlcNAc
# Procedure, shortened: as §1
# [6] = molecular target: Fuc(a1-2)Gal(b1-3)GlcNAc(b1-2)Man(a1-3)[Fuc(a1-2)Gal(b1-3)GlcNAc(b1-2)Man(a1-6)]Man(b1-4)GlcNAc(b1-4)GlcNAc
# Procedure, shortened: as §1
# [7] = molecular target: Fuc(a1-2)Gal(b1-3)GlcNAc(b1-2)Man(a1-3)[Fuc(a1-2)Gal(b1-3)GlcNAc(b1-2)Man(a1-6)]Man(b1-4)GlcNAc(b1-4)[Fuc(a1-6)]GlcNAc
# Procedure, shortened: as §1
# [8] = molecular target: Fuc(a1-2)Gal(b1-3)GlcNAc(b1-3)Gal(b1-4)Glc
# Procedure, shortened: as §1
# [9] = molecular target: Fuc(a1-2)Gal(b1-3)GlcNAc(b1-3)GalNAc
# Procedure, shortened: as §1
# [10] = molecular target: Fuc(a1-2)Gal(b1-3)GlcNAc(b1-3)[Fuc(a1-2)Gal(b1-3)GlcNAc(b1-6)]GalNAc
# Procedure, shortened: as §1
# [11] = molecular target: Fuc(a1-2)Gal(b1-3)GlcNAc(b1-3)[Gal(b1-4)GlcNAc(b1-6)]Gal(b1-4)Glc
# Procedure, shortened: as §1
# [12] = molecular target: Fuc(a1-2)Gal(b1-3)GlcNAc(b1-3)[Neu5Ac(a2-6)Gal(b1-4)GlcNAc(b1-6)]Gal(b1-4)Glc
# Procedure, shortened: as §1
# [13] = molecular target: Fuc(a1-2)Gal(b1-3)GlcNAc6S
# Procedure, shortened: as §1
# [14] = molecular target: Fuc(a1-2)Gal(b1-3)[Fuc(a1-4)]GlcNAc
# Procedure, shortened: as §1
# [15] = molecular target: Fuc(a1-2)Gal(b1-3)[Fuc(a1-4)]GlcNAc(b1-2)Man(a1-3)[Fuc(a1-2)Gal(b1-3)[Fuc(a1-4)]GlcNAc(b1-2)Man(a1-3)]Man(b1-4)GlcNAc(b1-4)GlcNAc
# Procedure, shortened: as §1
# [16] = molecular target: Fuc(a1-2)Gal(b1-3)[Fuc(a1-4)]GlcNAc(b1-2)Man(a1-3)[Fuc(a1-2)Gal(b1-3)[Fuc(a1-4)]GlcNAc(b1-2)Man(a1-6)]Man(b1-4)GlcNAc(b1-4)[Fuc(a1-6)]GlcNAc(b1-4)[Fuc(a1-6)]GlcNAc
# Procedure, shortened: as §1
# [17] = molecular target: Fuc(a1-2)Gal(b1-3)[Fuc(a1-4)]GlcNAc(b1-3)[Fuc(a1-3)[Gal(b1-4)]GlcNAc(b1-6)]Gal(b1-4)Glc
# Procedure, shortened: as §1
# [18] = molecular target: Fuc(a1-2)Gal(b1-3)[Fuc(a1-4)]GlcNAc(b1-3)[Gal(b1-4)GlcNAc(b1-6)]Gal(b1-4)Glc
# Procedure, shortened: as §1
# [19] = molecular target: Fuc(a1-2)Gal(b1-4)Fuc(a1-3)]GlcNAc(b1-2)Man(a1-3)[Fuc(a1-2)Gal(b1-4)[Fuc(a1-3)]GlcNAc(b1-2)Man(a1-6)]Man(b1-4)GlcNAc(b1-4)GlcNAc
# Procedure, shortened: as §1
# Fuc(a1-2)Gal(b1-4)Glc = molecular target: Fuc(a1-2)Gal(b1-4)Glc
# Procedure, shortened: as §1
# Fuc(a1-2)Gal(b1-4)Glc6S = molecular target: Fuc(a1-2)Gal(b1-4)Glc6S
# Procedure, shortened: as §1
# Fuc(a1-2)Gal(b1-4)GlcNAc = molecular target: Fuc(a1-2)Gal(b1-4)GlcNAc
# Procedure, shortened: as §1
# [20] = molecular target: Fuc(a1-2)Gal(b1-4)GlcNAc(b1-2)Man
# Procedure, shortened: as §1
# [21] = molecular target: Fuc(a1-2)Gal(b1-4)GlcNAc(b1-2)Man(a1-3)[Fuc(a1-2)Gal(b1-4)GlcNAc(b1-2)Man(a1-6)]Man(b1-4)GlcNAc(b1-4)GlcNAc
# Procedure, shortened: as §1
# [22] = molecular target: Fuc(a1-2)Gal(b1-4)GlcNAc(b1-2)Man(a1-3)[Fuc(a1-2)Gal(b1-4)GlcNAc(b1-2)Man(a1-6)]Man(b1-4)GlcNAc(b1-4)[Fuc(a1-6)]GlcNAc
# Procedure, shortened: as §1
# [23] = molecular target: Fuc(a1-2)Gal(b1-4)GlcNAc(b1-2)[Fuc(a1-2)Gal(b1-4)GlcNAc(b1-4)]Man(a1-3)[Fuc(a1-2)Gal(b1-4)GlcNAc(b1-2)Man(a1-6)]Man(b1-4)GlcNAc(b1-4)GlcNAc
# Procedure, shortened: as §1
# [24] = molecular target: Fuc(a1-2)Gal(b1-4)GlcNAc(b1-3)Gal(b1-4)GlcNAc
# Procedure, shortened: as §1
# [25] = molecular target: Fuc(a1-2)Gal(b1-4)GlcNAc(b1-3)Gal(b1-4)GlcNAc(b1-2)Man(a1-3)[Fuc(a1-2)Gal(b1-4)GlcNAc(b1-3)Gal(b1-4)GlcNAc(b1-2)Man(a1-6)]Man(b1-4)GlcNAc(b1-4)GlcNAc
# Procedure, shortened: as §1
# [26] = molecular target: Fuc(a1-2)Gal(b1-4)GlcNAc(b1-3)Gal(b1-4)GlcNAc(b1-3)Gal(b1-4)GlcNAc
# Procedure, shortened: as §1
# [27] = molecular target: Fuc(a1-2)Gal(b1-4)GlcNAc(b1-3)GalNAc
# Procedure, shortened: as §1
# [28] = molecular target: Fuc(a1-2)Gal(b1-4)GlcNAc(b1-3)[Fuc(a1-2)Gal(b1-4)GlcNAc(b1-6)]GalNAc
# Procedure, shortened: as §1
# [29] = molecular target: Fuc(a1-2)Gal(b1-4)GlcNAc(b1-3)[Fuc(a1-3)[Gal(b1-4)]GlcNAc(b1-6)]Gal(b1-4)Glc
# Procedure, shortened: as §1
# [30] = molecular target: Fuc(a1-2)Gal(b1-4)GlcNAc(b1-6)GalNAc
# Procedure, shortened: as §1
# [31] = molecular target: Fuc(a1-2)Gal(b1-4)GlcNAc6S
# Procedure, shortened: as §1
# [32] = molecular target: Fuc(a1-2)Gal(b1-4)[Fuc(a1-3)]GlcNAc
# Procedure, shortened: as §1
# [33] = molecular target: Fuc(a1-2)Gal(b1-4)[Fuc(a1-3)]GlcNAc(b1-2)Man(a1-3)[Fuc(a1-2)Gal(b1-4)[Fuc(a1-3)]GlcNAc(b1-2)Man(a1-6)]Man(b1-4)GlcNAc(b1-4)[Fuc(a1-6)]GlcNAc
# Procedure, shortened: as §1
# [34] = molecular target: Fuc(a1-2)Gal(b1-4)[Fuc(a1-3)]GlcNAc(b1-2)[Fuc(a1-2)Gal(b1-4)[Fuc(a1-3)]GlcNAc(b1-4)]Man(a1-3)[Fuc(a1-2)Gal(b1-4)[Fuc(a1-3)]GlcNAc(b1-2)Man(a1-6)]Man(b1-4)GlcNAc(b1-4)GlcNAc
# Procedure, shortened: as §1
# [35] = molecular target: Fuc(a1-2)Gal(b1-4)[Fuc(a1-3)]GlcNAc(b1-3)Gal(b1-4)[Fuc(a1-3)]GlcNAc
# Procedure, shortened: as §1
# [36] = molecular target: Fuc(a1-2)Gal(b1-4)[Fuc(a1-3)]GlcNAc(b1-3)Gal(b1-4)[Fuc(a1-3)]GlcNAc(b1-3)Gal(b1-4)[Fuc(a1-3)]GlcNAc
# Procedure, shortened: as §1
# [37] = molecular target: Fuc(a1-2)Gal(b1-4)[Fuc(a1-3)]GlcNAc(b1-3)GalNAc
# Procedure, shortened: as §1
# [38] = molecular target: Fuc(a1-2)Gal(b1-4)[Fuc(a1-3)]GlcNAc(b1-3)[Neu5Ac(a2-6)Gal(b1-4)GlcNAc(b1-6)]Gal(b1-4)Glc
# Procedure, shortened: as §1
# [39] = molecular target: Fuc(a1-2)Gal3S(b1-4)GlcNAc
# Procedure, shortened: as §1
binder,measurement,setting,value
"CFEM-SCL (Saccharomyces cerevisiae), O13547 (protein) MRATTLLSSVVSLALLSKEVLATPPACLLACVAQVGKSSSTCDSLNQVTCYCEHENSAVKKCLDSICPNNDADAAYSAFKSSCSEQNASLGD",glycan array binding signal (z-score),Fuc(a1-2)Gal,-0.18
same,glycan array binding signal (z-score),Fuc(a1-2)Gal(b1-3)GalNAc,-0.187
same,glycan array binding signal (z-score),[1],-0.253
same,glycan array binding signal (z-score),[2],-0.236
same,glycan array binding signal (z-score),[3],0.142
same,glycan array binding signal (z-score),[4],-0.265
same,glycan array binding signal (z-score),[5],-0.065
same,glycan array binding signal (z-score),Fuc(a1-2)Gal(b1-3)GlcNAc,-0.274
same,glycan array binding signal (z-score),[6],-0.258
same,glycan array binding signal (z-score),[7],-0.233
same,glycan array binding signal (z-score),[8],-0.221
same,glycan array binding signal (z-score),[9],-0.316
same,glycan array binding signal (z-score),[10],-0.151
same,glycan array binding signal (z-score),[11],-0.177
same,glycan array binding signal (z-score),[12],-0.29
same,glycan array binding signal (z-score),[13],-0.196
same,glycan array binding signal (z-score),[14],-0.113
same,glycan array binding signal (z-score),[15],1.35
same,glycan array binding signal (z-score),[16],-0.049
same,glycan array binding signal (z-score),[17],-0.173
same,glycan array binding signal (z-score),[18],-0.192
same,glycan array binding signal (z-score),[19],0.279
same,glycan array binding signal (z-score),Fuc(a1-2)Gal(b1-4)Glc,-0.068
same,glycan array binding signal (z-score),Fuc(a1-2)Gal(b1-4)Glc6S,-0.148
same,glycan array binding signal (z-score),Fuc(a1-2)Gal(b1-4)GlcNAc,-0.237
same,glycan array binding signal (z-score),[20],-0.399
same,glycan array binding signal (z-score),[21],-0.273
same,glycan array binding signal (z-score),[22],-0.211
same,glycan array binding signal (z-score),[23],-0.213
same,glycan array binding signal (z-score),[24],-0.297
same,glycan array binding signal (z-score),[25],-0.182
same,glycan array binding signal (z-score),[26],-0.22
same,glycan array binding signal (z-score),[27],3.91
same,glycan array binding signal (z-score),[28],-0.222
same,glycan array binding signal (z-score),[29],-0.304
same,glycan array binding signal (z-score),[30],-0.172
same,glycan array binding signal (z-score),[31],-0.218
same,glycan array binding signal (z-score),[32],-0.31
same,glycan array binding signal (z-score),[33],0.17
same,glycan array binding signal (z-score),[34],1.02
same,glycan array binding signal (z-score),[35],-0.273
same,glycan array binding signal (z-score),[36],-0.296
same,glycan array binding signal (z-score),[37],3.09
same,glycan array binding signal (z-score),[38],-0.311
same,glycan array binding signal (z-score),[39],-0.227
